# Laboratory results taken from PubChem BioAssay (Tox21).
# Where “and” joins values, the source holds several entries; their conditions need not be identical. Equal values may be shown once. The inconclusive results got no clear call from the source; some entries with a clear call stand among them for comparison. For part of these data: Potencies of inconclusive entries are doubtful fits and often do not repeat. Calls of active or inactive are those of the source. Unless noted, calls come from the whole dose curve; as a rule, active = well fitted curve in the direction sought with a large enough effect in the repeat runs; inconclusive = weak or mixed curves; inactive = no such curve, though single readings can be large; an effect the other way counts as inactive or inconclusive.
# Assays:
# [1] = qHTS assay for small molecule agonists of the antioxidant response element (ARE) signaling pathway (AID 743202; active = well fitted activation curve with a large enough effect in the signal ratio in the repeat runs, not every such curve was filed as active; inconclusive = weak or mixed curves, or effect the other way; inactive = no such curve, though single readings can be large or run the other way; the % refers to the signal ratio; note: potency is the fitted concentration of half-maximal effect; for activation: % is set by controls: 0 for no effect and ±100 for the full control effect); details: HepG2 ARE-bla reporter, beta-lactamase FRET, 16 h; activation: at 73.3 µM (top of the series) unless noted
# Method in brief: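 ARE-bla HepG2 cells (beta-lactamase reporter under the antioxidant response element), plated 5 hours, then exposed to compounds 16 hours at 37 C. LiveBLAzer B/G FRET substrate added for 2 hours at room temperature; fluorescence intensity read.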
# [2] = qHTS assay to identify small molecule agonists of the endoplasmic reticulum stress response signaling pathway (AID 1159516; active = well fitted activation curve with a large enough effect in the signal ratio in the repeat runs, not every such curve was filed as active; inconclusive = weak or mixed curves, or effect the other way; the % refers to the signal ratio; note: potency is the fitted concentration of half-maximal effect); details: ESRE-bla HeLa, ER stress beta-lactamase reporter, 5 h; activation: at 61 µM (top of the series) unless noted
# Method in brief: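 ER stress element reporter (bla) in HeLa. 1,500 cells/well, overnight attachment; 5 hr compound; 2 hr RT substrate; dual-emission fluorescence.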
# [3] = qHTS assay to identify small molecule antagonists of the peroxisome proliferator-activated receptor gamma (PPARg) signaling pathway - cell viability counter screen (AID 743194); details: PPARg-bla HEK293H viability, CellTiter-Glo luminescence, 17 h; Potency: co-treated with 50 nM rosiglitazone unless noted; activity change, negative = cytotoxicity: at 62.6 µM (top of the series), co-treated with 50 nM rosiglitazone unless noted; note: nearly all actives have a fitted effect of over 55% in size; note: potency is the fitted concentration of half-maximal effect
# Method in brief: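 Cytotoxicity counter screen in PPARg-bla HEK293H cells, same wells as reporter assay. Compounds plus 50 nM rosiglitazone (final) for 17 h at 37 C, then viability read by CellTiter-Glo luminescence.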
# [4] = qHTS assay for small molecule agonists of the antioxidant response element (ARE) signaling pathway - cell viability counter screen (AID 743203; calls by dose curve; note: nearly all actives have a fitted effect of over 55% in size; note: potency is the fitted concentration of half-maximal effect)
# Method in brief: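 Cells (ARE-bla HepG2, 2,000/well) receive DMSO-dissolved compounds after a 5 hrs rest. Plates incubate 16 hrs at 37C/5% CO2. CellTiter-Glo luminescence is then recorded after 30 min at room temperature.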
# [5] = qHTS assay for small molecule activators of the heat shock response signaling pathway - cell viability counter screen (AID 743209); details: HSE-bla HeLa viability, CellTiter-Glo luminescence, 5 h; activity change, negative = cytotoxicity: at 62.6 µM (top of the series) unless noted; note: nearly all actives have a fitted effect of over 50% in size; note: potency is the fitted concentration of half-maximal effect
# Method in brief: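 Quantitative HTS format, Tox21 10K library. HeLa cells carrying an HSE-driven beta-lactamase reporter were treated 5 h at 37 C, then assessed for viability by CellTiter-Glo luminescence.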
# [6] = qHTS assay for small molecule activators of the heat shock response signaling pathway (AID 743210; active = well fitted activation curve with a large enough effect in the signal ratio in the repeat runs, with a control signal flat, not every such curve was filed as active; inconclusive = weak or mixed curves; the % refers to the signal ratio; note: potency is the fitted concentration of half-maximal effect; for activation: % is set by controls: 0 for no effect and ±100 for the full control effect); details: HeLa HSE-bla reporter, beta-lactamase ratio, 5 h; activation: at 62.6 µM (top of the series)
# Method in brief: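 HSE-bla HeLa cells (beta-lactamase reporter under heat shock response elements), plated overnight, then exposed to compounds 5 h at 37 C; LiveBLAzer B/G FRET substrate added, 2.5 h at room temperature, fluorescence intensity read.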
# [7] = qHTS assay to identify small molecule agonists of the peroxisome proliferator-activated receptor delta (PPARd) signaling pathway - cell viability counter screen (AID 743211); details: PPARd-bla HEK293H viability, CellTiter-Glo luminescence, 17 h; activity change, negative = cytotoxicity: at 62.6 µM (top of the series) unless noted; note: potency is the fitted concentration of half-maximal effect; nearly all actives have a fitted effect of over 55% in size
# Method in brief: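 Following 5 h plating at 37 C and 5% CO2, PPARd UAS-bla HEK293H cells took up test compounds for 17 h. Viability was quantified by luminescence 30 min after CellTiter-Glo addition at room temperature.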
# [8] = qHTS assay to identify small molecule antagonists of the peroxisome proliferator-activated receptor delta (PPARd) signaling pathway - cell viability counter screen (AID 743213); details: PPARd-bla HEK293H viability, CellTiter-Glo luminescence, 17 h; viability change, negative = cytotoxic: at 62 µM (top of the series) unless noted; note: potency is the fitted concentration of half-maximal effect; nearly all actives have a fitted effect of over 50% in size
# Method in brief: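 PPARd-bla HEK293H cells (3000/well) got compound plus 300 nM L165041 agonist for 17 h at 37 C. Viability in the same wells came from CellTiter-Glo luminescence after 30 min at room temperature.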
# [9] = target: Bile acid receptor (Homo sapiens) (UniProt Q96RI1); experiment: qHTS assay to identify small molecule antagonists of the farnesoid-X-receptor (FXR) signaling pathway (AID 743217; active = well fitted inhibition curve with a large enough effect in the signal ratio in the repeat runs, not every such curve was filed as active; inconclusive = weak or mixed curves, or effect the other way; inactive = no such curve, though single readings can be large or run the other way; the % refers to the signal ratio; note: potency is the fitted concentration of half-maximal effect); details: HEK293T FXR-UAS-bla, beta-lactamase ratio, CDCA-stimulated, 16 h; activity change, negative = inhibition: at 62.6 µM (top of the series) unless noted
# Method in brief: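 Beta-lactamase reporter under UAS control in HEK 293T cells; compound exposure 16 h at 37 °C in the presence of chenodeoxycholic acid (50 uM final); signal from B/G FRET substrate after 2 h at room temperature.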
# [10] = target: Vitamin D3 receptor (Homo sapiens) (UniProt P11473); experiment: qHTS assay to identify small molecule agonists of the vitamin D receptor (VDR) signaling pathway (AID 743222; calls by dose curve; note: potency is the fitted concentration of half-maximal effect); details: HEK293T VDR-UAS-bla, beta-lactamase FRET ratio, 16 h; activation: at 63.5 µM (top of the series) unless noted
# Method in brief: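 Agonist activity measured in VDR-bla reporter cells. Exposure 16 h, 37C, 5% CO2; detection by B/G FRET substrate, 2 h RT.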
# [11] = target: Vitamin D3 receptor (Homo sapiens) (UniProt P11473); experiment: qHTS assay to identify small molecule antagonists of the vitamin D receptor (VDR) signaling pathway (AID 743223; active = well fitted inhibition curve with a large enough effect in the signal ratio in the repeat runs, not every such curve was filed as active; inconclusive = weak or mixed curves, or effect the other way; inactive = no such curve, though single readings can be large or run the other way; the % refers to the signal ratio; note: potency is the fitted concentration of half-maximal effect); details: VDR-UAS-bla HEK293T, beta-lactamase FRET ratio, 16 h; activity change, negative = inhibition: at 61 µM (top of the series) unless noted
# Method in brief: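 Beta-lactamase activity in VDR-bla cells is measured by FRET substrate fluorescence (2 h, room temperature) after cells spend 16 h at 37C with test compound and 3 nM final 1alpha,25-dihydroxyvitamin D3.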
# [12] = qHTS assay to identify small molecule antagonists of the vitamin D receptor (VDR) signaling pathway - cell viability counter screen (AID 743225); details: VDR-bla HEK293T viability, CellTiter-Glo luminescence, 16 h; viability change, negative = cytotoxic: at 61 µM (top of the series) unless noted; note: potency is the fitted concentration of half-maximal effect; nearly all actives have a fitted effect of over 50% in size
# Method in brief: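 In this counter screen, VDR-bla HEK 293T cells receive test compound plus 3 nM final calcitriol for 16 h at 37C. Room-temperature steps of 2 h with the beta-lactamase substrate, then 30 min with CellTiter-Glo, precede the luminescence read.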
# [13] = target: Peroxisome proliferator-activated receptor delta (Homo sapiens) (UniProt Q03181); experiment: qHTS assay to identify small molecule antagonists of the peroxisome proliferator-activated receptor delta (PPARd) signaling pathway (AID 743215; active = well fitted inhibition curve with a large enough effect in the signal ratio in the repeat runs, not every such curve was filed as active; inconclusive = weak or mixed curves, or effect the other way; inactive = no such curve, though single readings can be large or run the other way; the % refers to the signal ratio;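 note: cells stimulated with agonist L165041 at 300 nM final during compound exposure; % is set by controls: 0 for no effect and ±100 for the full control effect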); details: HEK293H PPARd-UAS-bla, beta-lactamase FRET ratio, antagonist, 17 h; ratio activity, negative = inhibition: at 62 µM (top of the series) unless noted
# Method in brief: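 Antagonist-mode beta-lactamase reporter screen: HEK293H cells with UAS-bla under PPARd control, stimulated by 300 nM L165041 (final) alongside test compound for 17 h at 37 C, then FRET fluorescence after 2 h substrate incubation.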
# [14] = qHTS assay to identify small molecule agonists of the vitamin D receptor (VDR) signaling pathway - cell viability counter screen (AID 743224); note: potency is the fitted concentration of half-maximal effect; nearly all actives have a fitted effect of over 50% in size
# Method in brief: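 VDR-bla cell line, quantitative HTS format; 16 h compound incubation (37C, 5% CO2); ATP-based CellTiter-Glo luminescence measured in the reporter assay wells.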
# [15] = qHTS assay to identify small molecule agonists of the farnesoid-X-receptor (FXR) signaling pathway - cell viability counter screen (AID 743218); details: FXR-bla HEK293T viability, CellTiter-Glo luminescence, 16 h; viability change, negative = cytotoxic: at 62.6 µM (top of the series) unless noted; note: potency is the fitted concentration of half-maximal effect; nearly all actives have a fitted effect of over 45% in size
# Method in brief: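 In GeneBLAzer FXR-UAS-bla HEK 293T cells, compounds act for 16 h at 37 C. Cell viability is then scored in the reporter wells by CellTiter-Glo, 30 min at RT, luminescence.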
# [16] = target: Peroxisome proliferator-activated receptor delta (Homo sapiens) (UniProt Q03181); experiment: qHTS assay to identify small molecule agonists of the peroxisome proliferator-activated receptor delta (PPARd) signaling pathway (AID 743212; calls by dose curve; note: % is set by controls: 0 for no effect and ±100 for the full control effect); details: HEK293H PPARd-UAS-bla, beta-lactamase FRET ratio, 17 h; activation: at 62.6 µM (top of the series) unless noted
# Method in brief: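 GeneBLAzer UAS-bla HEK293H cells carrying a PPARδ construct were exposed to compounds at 37 °C. Beta-lactamase activity was read by FRET fluorescence after 2 h at room temperature with LiveBLAzer B/G substrate.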
# Tags give direction and shape of the fitted curve or compound fluorescence and quenching.
# Chain of UniProt P11473 (P11473 whole entry, looked up): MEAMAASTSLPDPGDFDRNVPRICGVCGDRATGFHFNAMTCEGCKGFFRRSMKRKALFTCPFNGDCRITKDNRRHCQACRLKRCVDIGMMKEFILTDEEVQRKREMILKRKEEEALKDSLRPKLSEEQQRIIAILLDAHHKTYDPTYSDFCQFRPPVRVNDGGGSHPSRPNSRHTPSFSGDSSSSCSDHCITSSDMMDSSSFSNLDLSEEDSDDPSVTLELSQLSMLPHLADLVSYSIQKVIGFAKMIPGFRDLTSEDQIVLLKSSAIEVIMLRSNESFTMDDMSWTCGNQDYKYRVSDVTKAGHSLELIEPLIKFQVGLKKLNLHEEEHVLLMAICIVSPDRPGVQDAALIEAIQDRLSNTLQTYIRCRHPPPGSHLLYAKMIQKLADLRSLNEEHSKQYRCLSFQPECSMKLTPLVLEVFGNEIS
# Chain of UniProt Q96RI1 (Q96RI1 whole entry, looked up): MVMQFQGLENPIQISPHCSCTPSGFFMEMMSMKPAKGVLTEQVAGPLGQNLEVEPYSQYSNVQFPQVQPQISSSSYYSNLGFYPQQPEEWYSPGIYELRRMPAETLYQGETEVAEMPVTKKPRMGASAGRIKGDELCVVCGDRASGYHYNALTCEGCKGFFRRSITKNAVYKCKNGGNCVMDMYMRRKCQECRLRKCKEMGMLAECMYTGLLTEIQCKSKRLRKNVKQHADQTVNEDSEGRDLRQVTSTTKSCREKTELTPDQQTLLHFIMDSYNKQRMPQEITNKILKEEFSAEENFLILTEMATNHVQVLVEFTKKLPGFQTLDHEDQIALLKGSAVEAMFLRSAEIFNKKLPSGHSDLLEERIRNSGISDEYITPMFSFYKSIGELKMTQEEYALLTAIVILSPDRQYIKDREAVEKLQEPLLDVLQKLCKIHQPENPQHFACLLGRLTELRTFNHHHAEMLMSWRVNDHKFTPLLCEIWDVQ
# Chain of UniProt Q03181 (Q03181 whole entry, looked up): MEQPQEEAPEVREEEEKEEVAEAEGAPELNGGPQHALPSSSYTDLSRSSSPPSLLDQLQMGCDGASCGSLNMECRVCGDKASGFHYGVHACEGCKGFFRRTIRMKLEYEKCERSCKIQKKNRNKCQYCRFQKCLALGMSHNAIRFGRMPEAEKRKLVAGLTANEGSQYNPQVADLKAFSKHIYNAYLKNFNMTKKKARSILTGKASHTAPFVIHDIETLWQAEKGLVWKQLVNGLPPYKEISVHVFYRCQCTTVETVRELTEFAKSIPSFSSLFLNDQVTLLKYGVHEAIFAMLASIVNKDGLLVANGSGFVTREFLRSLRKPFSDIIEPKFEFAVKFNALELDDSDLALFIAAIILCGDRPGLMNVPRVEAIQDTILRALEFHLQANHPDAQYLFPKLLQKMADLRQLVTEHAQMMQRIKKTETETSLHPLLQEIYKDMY
smiles,measurement,setting,value
COc1cc(CC(C)N)cc2c1OCO2 (centres undefined),activation,[1],inconclusive: -0.831% [at 94.8 µM]
same,Potency,[2],"inconclusive: 2.28 µM [rising, partial curve, poor fit]"
CCCCNC(=O)OCC#CI,Potency,[3],"inconclusive: 54.7 µM [cytotoxic] and inconclusive: 19.5 µM [cytotoxic, partial curve, poor fit]"
same,Potency,[4],"inconclusive: 48.3 µM [cytotoxic, partial curve] and active: 21.7 µM"
same,Potency,[5],"inconclusive: 3.89 µM [cytotoxic, partial curve, poor fit]"
same,Potency,[6],inconclusive: 36 µM
same,activation,[6],inconclusive: 10.2%
same,Potency,[7],"inconclusive: 61.4 µM [cytotoxic, single point] and inconclusive: 49 µM [cytotoxic, partial curve, poor fit]"
same,Potency,[8],"inconclusive: 61.4 µM [cytotoxic, single point] and inconclusive: 174 nM [cytotoxic, single point]"
same,Potency,[9],inactive
same,Potency,[10],inconclusive: 54.7 µM and inconclusive: 61.6 µM
same,Potency,[11],inconclusive: 54.7 µM [single point] and inconclusive: 54.9 µM
same,Potency,[12],"inconclusive: 15.5 µM [cytotoxic, full curve, poor fit]"
same,Potency,[2],inconclusive: 38.7 µM [partial curve] and inconclusive: 27.5 µM
Fc1cccc(Cl)c1CCl,Potency,[1],"inconclusive: 34.4 µM [rising, partial curve, poor fit]"
same,Potency,[4],inactive
same,Potency,[12],"inconclusive: 1.38 µM [rising, partial curve, poor fit]"
same,activation,[2],inconclusive: -10.2%
CCOP(=S)(OCC)Oc1cc(Cl)c(Br)cc1Cl,Potency,[3],"inconclusive: 49 µM [cytotoxic, partial curve, poor fit]"
same,Potency,[7],"inconclusive: 61.6 µM [cytotoxic, partial curve, poor fit]"
same,Potency,[8],"inconclusive: 12.3 µM [cytotoxic, partial curve, poor fit]"
same,"ratio activity, negative = inhibition",[13],inconclusive: -30.7%
same,Potency,[9],"inconclusive: 43.6 µM [inhibitor, partial curve]"
same,Potency,[11],inactive
same,Potency,[14],"inconclusive: 54.9 µM [cytotoxic, single point]"
same,Potency,[2],inconclusive: 61.6 µM [cytotoxic]
CCN(CC)c1c([N+](=O)[O-])cc(C(F)(F)F)c(N)c1[N+](=O)[O-],Potency,[3],inactive
same,Potency,[15],"inconclusive: 27.5 µM [cytotoxic, partial curve, poor fit]"
same,activation,[2],inconclusive: -3.75%
COCC(=O)N(c1c(C)cccc1C)N1CCOC1=O,Potency,[3],"inconclusive: 0.219 µM [rising, partial curve, poor fit]"
same,Potency,[4],inactive
same,Potency,[5],inactive
same,Potency,[16],inactive
same,Potency,[2],inactive
CCOP(=O)(SC(C)CC)N1CCSC1=O (centres undefined),activation,[1],inconclusive: -3.88%
same,Potency,[6],inactive
same,Potency,[2],inactive
OCCBr,Potency,[1],active: 27.4 µM
same,Potency,[2],inactive
